# Experimental data from publication PMC9911399, “Two distinct binding modes provide the RNA-binding protein RbFox with extraordinary sequence specificity”.
# Residue numbers refer to the chain shown, from its start. The list shows a part of the results.
# T1: RBFOX1 RRM RbFoxmut (Fox-RRM*) (Homo sapiens, UniProt Q9NWB1 109-208, R118D;E147R;N151S;E152T)
# T1 sequence: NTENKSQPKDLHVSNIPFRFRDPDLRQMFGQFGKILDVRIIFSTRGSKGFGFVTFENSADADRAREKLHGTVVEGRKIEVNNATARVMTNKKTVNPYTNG
# B1: GGAGGAU (DNA:RNA)
# RNA: GGGAGACCGGAAUUCAGAUUGUCCGGAGGAUUUAAAUCCCGUCGUAGCCACCA
# DNA 1: CAATCTGAATTCCGGTCTCCC
# DNA 2: TGGTGGCTACGACGGGATT
# B2: UUGGAAC (DNA:RNA)
# RNA: B1 RNA with G25U, G26U, A27G, G29A, U31C
# DNA 1: CAATCTGAATTCCGGTCTCCC
# DNA 2: TGGTGGCTACGACGGGATT
# B3: CAUUAGA (DNA:RNA)
# RNA: GGGAGACCGGAAUUCAGAUUGUCCCAUUAGAUUAAAUCCCGUCGUAGCCACCA
# DNA 1: CAATCTGAATTCCGGTCTCCC
# DNA 2: TGGTGGCTACGACGGGATT
# B4: UCGGUCA (DNA:RNA)
# RNA: B3 RNA with C25U, A26C, U27G, U28G, A29U, G30C
# DNA 1: CAATCTGAATTCCGGTCTCCC
# DNA 2: TGGTGGCTACGACGGGATT
# B5: CUCUUCC (DNA:RNA)
# RNA: B3 RNA with A26U, U27C, A29U, G30C, A31C
# DNA 1: CAATCTGAATTCCGGTCTCCC
# DNA 2: TGGTGGCTACGACGGGATT
# B6: AGACAGG (DNA:RNA)
# RNA: B3 RNA with C25A, A26G, U27A, U28C, A31G
# DNA 1: CAATCTGAATTCCGGTCTCCC
# DNA 2: TGGTGGCTACGACGGGATT
# B7: GUCCACG (DNA:RNA)
# RNA: B3 RNA with C25G, A26U, U27C, U28C, G30C, A31G
# DNA 1: CAATCTGAATTCCGGTCTCCC
# DNA 2: TGGTGGCTACGACGGGATT
# B8: UAGAAUG (DNA:RNA)
# RNA: B3 RNA with C25U, U27G, U28A, G30U, A31G
# DNA 1: CAATCTGAATTCCGGTCTCCC
# DNA 2: TGGTGGCTACGACGGGATT
# B9: CCUAUAG (DNA:RNA)
# RNA: B3 RNA with A26C, U28A, A29U, G30A, A31G
# DNA 1: CAATCTGAATTCCGGTCTCCC
# DNA 2: TGGTGGCTACGACGGGATT
# B10: GUGCCCG (DNA:RNA)
# RNA: B1 RNA with G26U, A27G, G28C, G29C, A30C, U31G
# DNA 1: CAATCTGAATTCCGGTCTCCC
# DNA 2: TGGTGGCTACGACGGGATT
# B11: ACUGAAU (DNA:RNA)
# RNA: B1 RNA with G25A, G26C, A27U, G29A
# DNA 1: CAATCTGAATTCCGGTCTCCC
# DNA 2: TGGTGGCTACGACGGGATT
# B12: UUUGUGC (DNA:RNA)
# RNA: B3 RNA with C25U, A26U, U28G, A29U, A31C
# DNA 1: CAATCTGAATTCCGGTCTCCC
# DNA 2: TGGTGGCTACGACGGGATT
# B13: GAUGAAA (DNA:RNA)
# RNA: B3 RNA with C25G, U28G, G30A
# DNA 1: CAATCTGAATTCCGGTCTCCC
# DNA 2: TGGTGGCTACGACGGGATT
# B14: GUGUGCA (DNA:RNA)
# RNA: B3 RNA with C25G, A26U, U27G, A29G, G30C
# DNA 1: CAATCTGAATTCCGGTCTCCC
# DNA 2: TGGTGGCTACGACGGGATT
# B15: CUAUCAU (DNA:RNA)
# RNA: B1 RNA with G25C, G26U, G28U, G29C
# DNA 1: CAATCTGAATTCCGGTCTCCC
# DNA 2: TGGTGGCTACGACGGGATT
# B16: AUUGUAU (DNA:RNA)
# RNA: B1 RNA with G25A, G26U, A27U, G29U
# DNA 1: CAATCTGAATTCCGGTCTCCC
# DNA 2: TGGTGGCTACGACGGGATT
# B17: CUUAAGU (DNA:RNA)
# RNA: B3 RNA with A26U, U28A, A31U
# DNA 1: CAATCTGAATTCCGGTCTCCC
# DNA 2: TGGTGGCTACGACGGGATT
# B18: CUAAUUG (DNA:RNA)
# RNA: B3 RNA with A26U, U27A, U28A, A29U, G30U, A31G
# DNA 1: CAATCTGAATTCCGGTCTCCC
# DNA 2: TGGTGGCTACGACGGGATT
# B19: AAUUCGA (DNA:RNA)
# RNA: B3 RNA with C25A, A29C
# DNA 1: CAATCTGAATTCCGGTCTCCC
# DNA 2: TGGTGGCTACGACGGGATT
# B20: AGCACCG (DNA:RNA)
# RNA: B1 RNA with G25A, A27C, G28A, G29C, A30C, U31G
# DNA 1: CAATCTGAATTCCGGTCTCCC
# DNA 2: TGGTGGCTACGACGGGATT
# B21: CGUAGGA (DNA:RNA)
# RNA: B3 RNA with A26G, U28A, A29G
# DNA 1: CAATCTGAATTCCGGTCTCCC
# DNA 2: TGGTGGCTACGACGGGATT
# B22: ACGUCUG (DNA:RNA)
# RNA: B3 RNA with C25A, A26C, U27G, A29C, G30U, A31G
# DNA 1: CAATCTGAATTCCGGTCTCCC
# DNA 2: TGGTGGCTACGACGGGATT
# B23: AACUGGC (DNA:RNA)
# RNA: B3 RNA with C25A, U27C, A29G, A31C
# DNA 1: CAATCTGAATTCCGGTCTCCC
# DNA 2: TGGTGGCTACGACGGGATT
# B24: CUUUUGA (DNA:RNA)
# RNA: B3 RNA with A26U, A29U
# DNA 1: CAATCTGAATTCCGGTCTCCC
# DNA 2: TGGTGGCTACGACGGGATT
# B25: GAUAGGC (DNA:RNA)
# RNA: B3 RNA with C25G, U28A, A29G, A31C
# DNA 1: CAATCTGAATTCCGGTCTCCC
# DNA 2: TGGTGGCTACGACGGGATT
# B26: GUUUUUC (DNA:RNA)
# RNA: B3 RNA with C25G, A26U, A29U, G30U, A31C
# DNA 1: CAATCTGAATTCCGGTCTCCC
# DNA 2: TGGTGGCTACGACGGGATT
# B27: GGCCUCA (DNA:RNA)
# RNA: B1 RNA with A27C, G28C, G29U, A30C, U31A
# DNA 1: CAATCTGAATTCCGGTCTCCC
# DNA 2: TGGTGGCTACGACGGGATT
# B28: CGGAAUC (DNA:RNA)
# RNA: B3 RNA with A26G, U27G, U28A, G30U, A31C
# DNA 1: CAATCTGAATTCCGGTCTCCC
# DNA 2: TGGTGGCTACGACGGGATT
# B29: CUAUGAA (DNA:RNA)
# RNA: B3 RNA with A26U, U27A, A29G, G30A
# DNA 1: CAATCTGAATTCCGGTCTCCC
# DNA 2: TGGTGGCTACGACGGGATT
# B30: CAGCGAU (DNA:RNA)
# RNA: B1 RNA with G25C, G26A, A27G, G28C
# DNA 1: CAATCTGAATTCCGGTCTCCC
# DNA 2: TGGTGGCTACGACGGGATT
# B31: UCGAAGU (DNA:RNA)
# RNA: B3 RNA with C25U, A26C, U27G, U28A, A31U
# DNA 1: CAATCTGAATTCCGGTCTCCC
# DNA 2: TGGTGGCTACGACGGGATT
# Target: T1, RBFOX1 RRM RbFoxmut (Fox-RRM*)
# Experiment: EMSA; HiTS-Eq, 1 nM pool, 10 min; buffer printed only for the single-RNA assays: 10 mM Tris pH 7.5, 150 mM NaCl, 3.4 mM EDTA, 0.001% NP-40, 30 C
# Settings: tags: His6 N-terminal (pET28a); label: 5' 32P
# Outline: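 Purified RbFox RRM (wild type or mutant) was equilibrated for 10 min in 50 µL with 1 nM of a 5′-radiolabelled pool of RNA with 7 randomized nucleotides, its flanks annealed to DNA oligonucleotides, across increasing protein concentrations. Free RNA was separated by 8% native PAGE, excised, reverse-transcribed, PCR-barcoded and sequenced on an Illumina HiSeq 2500. Relative association constants came from read-count changes of each variant against the control reaction, normalised to the cognate motif.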
row,Binder,binding signal
1,B1,0.0724 KA relative to UGCAUGU
2,B2,0.0995 KA relative to UGCAUGU
3,B3,0.0983 KA relative to UGCAUGU
4,B4,0.0953 KA relative to UGCAUGU
5,B5,0.0471 KA relative to UGCAUGU
6,B6,0.109 KA relative to UGCAUGU
7,B7,0.114 KA relative to UGCAUGU
8,B8,0.953 KA relative to UGCAUGU
9,B9,0.139 KA relative to UGCAUGU
10,B10,0.111 KA relative to UGCAUGU
11,B11,0.0559 KA relative to UGCAUGU
12,B12,0.15 KA relative to UGCAUGU
13,B13,0.0758 KA relative to UGCAUGU
14,B14,0.316 KA relative to UGCAUGU
15,B15,0.127 KA relative to UGCAUGU
16,B16,0.199 KA relative to UGCAUGU

row,Binder,binding signal
1,B17,0.11 KA relative to UGCAUGU
2,B18,0.0751 KA relative to UGCAUGU
3,B19,0.0737 KA relative to UGCAUGU
4,B20,0.104 KA relative to UGCAUGU
5,B21,0.0729 KA relative to UGCAUGU
6,B22,0.104 KA relative to UGCAUGU
7,B23,0.102 KA relative to UGCAUGU
8,B24,0.0815 KA relative to UGCAUGU
9,B25,0.0824 KA relative to UGCAUGU
10,B26,0.0549 KA relative to UGCAUGU
11,B27,0.104 KA relative to UGCAUGU
12,B28,0.436 KA relative to UGCAUGU
13,B29,0.0953 KA relative to UGCAUGU
14,B30,0.0681 KA relative to UGCAUGU
15,B31,0.107 KA relative to UGCAUGU
